Assay results from paper PMC4336329 (PLoS ONE, 2015).
The whole screen tested about 310,000 compounds, of which about 2,200 (0.71%) showed an effect of 50% or more. Effects have a minus sign here. The list shows a part of the results.

Target: human ether-à-go-go-related gene (hERG) potassium channel (human, UniProt Q12809)
Experiment: primary screen, population patch clamp on CHO cells stably expressing hERG

Chain of human ether-à-go-go-related gene (hERG) potassium channel (Q12809 whole entry, looked up): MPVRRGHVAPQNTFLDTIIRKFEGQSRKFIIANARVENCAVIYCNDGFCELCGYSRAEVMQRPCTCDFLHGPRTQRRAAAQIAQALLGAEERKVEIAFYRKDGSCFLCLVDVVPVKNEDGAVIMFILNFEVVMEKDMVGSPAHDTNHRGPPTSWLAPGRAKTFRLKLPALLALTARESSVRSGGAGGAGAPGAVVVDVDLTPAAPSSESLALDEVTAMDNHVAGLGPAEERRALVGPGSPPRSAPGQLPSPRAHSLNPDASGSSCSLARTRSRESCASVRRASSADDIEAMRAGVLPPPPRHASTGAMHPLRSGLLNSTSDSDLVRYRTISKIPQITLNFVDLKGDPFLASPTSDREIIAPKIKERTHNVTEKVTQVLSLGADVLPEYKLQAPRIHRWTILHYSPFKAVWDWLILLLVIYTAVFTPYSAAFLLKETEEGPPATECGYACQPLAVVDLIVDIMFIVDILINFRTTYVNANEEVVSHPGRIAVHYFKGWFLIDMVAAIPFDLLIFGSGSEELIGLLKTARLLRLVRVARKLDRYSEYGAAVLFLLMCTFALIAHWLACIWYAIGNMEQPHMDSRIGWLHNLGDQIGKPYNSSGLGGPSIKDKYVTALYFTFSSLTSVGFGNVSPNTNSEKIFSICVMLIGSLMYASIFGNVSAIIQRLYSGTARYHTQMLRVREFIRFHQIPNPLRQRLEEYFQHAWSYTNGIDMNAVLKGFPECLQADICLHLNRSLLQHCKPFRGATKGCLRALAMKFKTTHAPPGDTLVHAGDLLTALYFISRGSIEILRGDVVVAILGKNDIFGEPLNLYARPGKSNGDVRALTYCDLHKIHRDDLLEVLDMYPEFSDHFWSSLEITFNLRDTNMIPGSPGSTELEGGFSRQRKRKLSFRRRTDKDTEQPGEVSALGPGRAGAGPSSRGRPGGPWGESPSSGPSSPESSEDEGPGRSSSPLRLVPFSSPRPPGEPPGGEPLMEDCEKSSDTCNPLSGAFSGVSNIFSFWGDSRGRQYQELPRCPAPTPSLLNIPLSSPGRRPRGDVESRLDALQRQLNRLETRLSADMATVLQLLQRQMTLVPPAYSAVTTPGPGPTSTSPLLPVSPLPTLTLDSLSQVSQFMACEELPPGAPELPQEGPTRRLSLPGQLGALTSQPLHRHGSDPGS

Compared with O=C(N/N=C/c1cccc(OCc2ccccc2)c1)c1ccc(Br)cc1, CC(=O)c1cccc(NC(=O)CSCc2ccccc2)c1 is higher in “hERG current change (%, negative = inhibition) at 1uM” value: -1.87% for the first, 11% for the second.

Going from CCOC(=O)C1CCN(c2c([N+](=O)[O-])c(C(Cl)Cl)nn2-c2ccccc2)CC1 to CCOC(=O)N1CCN(C(=O)CNC(=O)c2ccc(Cl)cc2Cl)CC1, the “hERG current change (%, negative = inhibition) at 1uM” value falls from 3.58% to -9.31%.

Going from Cc1ccc(C(=O)C2CCN(CC(=O)N3CCN(c4ccc(F)cc4)CC3)CC2)cc1 to CCN1CCN(C(=S)c2ccc(OCC(=O)Nc3ccc(OC)cc3)cc2)CC1, the “hERG current change (%, negative = inhibition) at 1uM” value rises from -66.5% to 3.47%.

Going from CN(C)c1ccc(N/C=C/C(=O)C(C)(C)C)cc1 to CS(=O)(=O)N(CC(=O)NCc1ccncc1)c1ccc(Cl)c(Cl)c1, the “hERG current change (%, negative = inhibition) at 1uM” value falls from 16% to -6.93%.

Going from COc1ccc(NC(=S)NCc2ccc(S(N)(=O)=O)cc2)c(OC)c1 to COc1ccc(NC(=O)c2ccc(S(=O)(=O)C(F)F)cc2)c(OC)c1, the “hERG current change (%, negative = inhibition) at 1uM” value falls from 9.35% to 0.227%.

Compared with CCOc1ccc(-c2c(C(=O)N/N=C/c3ccc(C)o3)nnn2-c2nonc2N)cc1, Cc1ccc(-c2csc3ncnc(SCC(=O)Nc4nnc(C)s4)c23)cc1 is lower in “hERG current change (%, negative = inhibition) at 1uM” value: 13.8% for the first, -0.987% for the second.

First: CN(C)C1=C(Cl)C(=O)N(c2ccc(Cl)c(Cl)c2)C1=O
Second: Cc1ccc(C2N(c3ccc(Cl)c(Cl)c3)C(=O)C3CCCN32)o1 (centres unmarked)
The “hERG current change (%, negative = inhibition) at 1uM” value of the first is higher: 11.2% for the first, 10.9% for the second.

Compared with O=[n+]1c2c(n([O-])c3cc(Br)ccc31)CCC2, CC(C)CCN1C(=O)c2ccc(C(=O)NCC3CCCO3)cc2C1=O (centres unmarked) is lower in “hERG current change (%, negative = inhibition) at 1uM” value: 3.9% for the first, -1.67% for the second.

First: CCN(CC)S(=O)(=O)c1ccc2oc(C(=O)NCC3COc4ccccc4O3)c(C)c2c1 (centres unmarked)
Second: Cc1cc(S(=O)(=O)N(Cc2ccccc2F)C2CC2)ccc1-n1cnnn1
The “hERG current change (%, negative = inhibition) at 1uM” value of the first is higher: 6.82% for the first, -7.13% for the second.

Going from CCOc1ccc(N(CC(=O)NC2CCCC2)S(=O)(=O)c2c(C)[nH]c(=O)[nH]c2=O)cc1 to O=C(CC1C(=O)NC2CCCCC2N1C(=O)c1ccc([N+](=O)[O-])cc1)Nc1ccccc1 (centres unmarked), the “hERG current change (%, negative = inhibition) at 1uM” value falls from 10.8% to -0.203%.

First: Cc1cc(C(=O)N/N=C2\CC(=O)CC(C)(C)C2)n[nH]1
Second: Cc1cc(C)c(C(=O)C2OC(=O)C(C)(C)C(=O)C2(C)C)c(C)c1 (centres unmarked)
The “hERG current change (%, negative = inhibition) at 1uM” value of the first is lower: 2.33% for the first, 9.56% for the second.

Compared with CCOC(=O)CN1C(=O)C(Sc2n[nH]c(-c3cccc(C)c3)n2)CCc2ccccc21 (centres unmarked), COc1ccccc1CNC(=O)COC(=O)c1n[nH]c2ccccc12 is lower in “hERG current change (%, negative = inhibition) at 1uM” value: 9.6% for the first, -2.71% for the second.

First: COc1ccc(CCC(=O)Nc2ccc(-c3noc(-c4ccc(OC)c(OC)c4)n3)cc2)cc1
Second: Cc1ccc(-c2nnc(-c3cccc(NC(=O)c4cccs4)c3)o2)cc1
The “hERG current change (%, negative = inhibition) at 1uM” value of the first is higher: 22.2% for the first, 6.58% for the second.

Going from CCCCN(CC)CCCNC(=O)c1cc2cc3ccc(OC)cc3nc2o1 to CC(C)CCNC(=O)CN(Cc1ccccc1)C(=O)CCC(=O)Nc1ccccn1, the “hERG current change (%, negative = inhibition) at 1uM” value rises from -32.7% to 2.22%.

First: COC(=O)[C@H]1C[C@@H]1[C@H](NC(=O)c1cccnc1)c1ccccc1
Second: CC(C)CCNC(=O)COc1ccc(C(=O)c2ccccc2)cc1
The “hERG current change (%, negative = inhibition) at 1uM” value of the first is higher: 11.5% for the first, 1.68% for the second.

First: CC1(C)NC(=O)N(c2ccccc2Cl)C1(C)NO (centres unmarked)
Second: CCCc1nc2c(nnn2Cc2ccccc2)c(=O)[nH]1
The “hERG current change (%, negative = inhibition) at 1uM” value of the first is lower: -5.78% for the first, 7.23% for the second.

Compared with COc1ccc(CN2CCN(CC(O)Cn3c4ccccc4c4ccccc43)CC2)cc1 (centres unmarked), COS(=O)(=O)[O-].Cn1c(Cc2ccccc2)[n+](C)c2ccccc21 is higher in “hERG current change (%, negative = inhibition) at 1uM” value: -8.22% for the first, 9.2% for the second.

First: COc1ccc2c(c1)CC[C@@H]1[C@@H]2CC[C@]2(C)C(=O)CC[C@@H]12
Second: CC(C)NC(=O)c1cc2cc([N+](=O)[O-])ccc2s1
The “hERG current change (%, negative = inhibition) at 1uM” value of the first is higher: 14.4% for the first, 14.1% for the second.

Going from Cc1ccc(C2=CC(c3ccccc3)n3ncnc3N2)cc1 (centres unmarked) to Cc1ccc(C(=O)N/C(=C\c2ccccc2)C(=O)NCC2CCCO2)cc1 (centres unmarked), the “hERG current change (%, negative = inhibition) at 1uM” value rises from 9.05% to 9.57%.

Going from CC(C)c1ccc(-n2nnnc2SCC(=O)NC2CC2)cc1 to O=C(Nc1c2c(nn1-c1ccccc1)CS(=O)(=O)C2)c1cccs1, the “hERG current change (%, negative = inhibition) at 1uM” value falls from 14.9% to 12%.

First: CCC(C)NC(=O)CCS(=O)(=O)c1ccc(Br)s1 (centres unmarked)
Second: O=S(=O)(NCc1cccs1)c1ccc(Br)cc1
The “hERG current change (%, negative = inhibition) at 1uM” value of the first is lower: 6.64% for the first, 17.4% for the second.

Going from Cc1ccc(C(=O)N(c2ccccc2)C2CC(C)N(C(=O)c3ccco3)c3ccccc32)cc1 (centres unmarked) to O=S(=O)(Cc1nc2ccccc2s1)c1ccccc1, the “hERG current change (%, negative = inhibition) at 1uM” value rises from 1.93% to 4.95%.
